Source: PubChem BioAssay AID1963833 (Molecular Pharmacology Branch, DTP, NCI, 2024)
The source holds more than one record for some entries. They are shown here; other results are not. There may be further records. Values that stand side by side are repeats across runs, samples, wells, individuals or studies. Brackets with × stand for listed records that agree.

System: 883617-216-R-J1-PDC complex spheroid viability
Experiment: Anticancer human tumor 883617-216-R-J1-PDC patient-derived bladder carcinoma cell line growth inhibition [POLQ]
Details: stronger effect = lower value
Description: Multicellular complex tumor spheroid response to Polymerase (POL) inhibitors (novobiocin, ART-558, RP6685) in combination with a variety of drugs and investigational agents in selected tumor cell lines
The POL inhibitors (novobiocin, ART-558, and RP6685) were evaluated both individually and in combination with standard of care and investigational anticancer small molecules within a complex spheroid model of solid tumors. . Complex spheroids include a stromal component modeled by human endothelial cells (HUVEC) and fibroblasts modeled by human mesenchymal stem cells (MSCs). The concentration ranges selected for each drug and investigational agent were based upon clinically achievable concentrations if the clinical Cmax of the agent was known.
Compounds. The drugs and investigational agents: novobiocin (NSC847541), ART-558 (NSC835418), RP-6685 (NSC848927), peposertib (NSC802822), ceralasertib (NSC780249), elimusertib (NSC800525), camonsertib (NSC841442), AZD-1390 (NSC803789), olaparib (NSC753686), talazoparib (NSC767125), rucaparib (NSC756644), sotorasib (NSC818433), MRTX-1133 (NSC836407), SN-38 (NSC673596), topotecan (NSC609699), epotoside (NSC141540), doxorubicin (NSC123127), gemcitabine (NSC613327), 5-fluorouracil (NSC19893), paclitaxel (NSC125973), vemurafenib (NSC761431), MSA-2 (NSC828583), SN-011 (NSC837082), adavosertib (NSC754352), prexasertib (NSC758257), carboplatin (NSC241240) and oxaliplatin (NSC266046), were obtained from the National Cancer Institute (NCI) Developmental Therapeutics Program Chemical Repository (21). The FDA-approved anticancer drug set is available from the Developmental Therapeutics Program at https://dtp.cancer.gov/organization/dscb/obtaining/. […] If the clinical Cmax for an agent had not been determined, the highest concentration tested was 10 microM, except for SN-38, which was tested at a high concentration of 1 microM. […]
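Note: spheroids exposed to compounds for seven days before readout; 100% = DMSO vehicle control viability.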

| SMILES | viability, T/C (compound alone 0.316 µM) | viability, T/C (compound alone 10 µM) | viability, T/C (compound alone 0.1 µM) |
| --- | --- | --- | --- |
| COC1C(OC(N)=O)C(O)C(Oc2ccc3c(O)c(NC(=O)c4ccc(O)c(CC=C(C)C)c4)c(=O)oc3c2C)OC1(C)C (stereo not drawn) | 93.5, 98.6, 112, 96.9, 99.5, 114, 102, 100 (2×), 91.6, 97.6, 121, 99.3% | 91.1, 105, 92.4, 116, 94, 89.3, 101, 86.8, 97.2, 94.5, 113, 106, 96.9% |  |
| Cc1cccc(N(C)C(=O)C2C(O)CCN2c2nc(C)cc(C(F)(F)F)c2C#N)c1 (stereo not drawn) |  |  | 110 (2×), 106, 95.5, 114, 98.8, 97.9, 104 (2×), 98.7, 93.9, 87.6, 87.5% |
